Measured values reported in PubChem BioAssay AID540317 (National Center for Advancing Translational Sciences (NCATS), 2011).
Out of some 390,000 compounds screened, about 2,200 (0.56%) were called active. The shares of active, inactive and inconclusive entries below differ from those in the screen. The call rests on the fitted dose curve; in most records, active means well fitted inhibition curve with a large enough effect; inconclusive means small, poorly fitted or top-dose-only effect; inactive means no such curve, though single readings can be large or run the other way. Potencies beside an inconclusive call are fits to weak or partial responses and may not hold up.

The compounds below were run against Chromobox protein homolog 1 (Homo sapiens) (UniProt P83916) (assay: HTS for Inhibitors of HP1-beta Chromodomain Interactions with Methylated Histone Tails). Settings: AlphaScreen HP1-beta / biotin-H3K9me3 peptide binding; series mostly up to 114 µM; activity change, negative = inhibition: at the top concentration.
Summary of the method: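 AlphaScreen: HP1-beta (50 nM) preformed 30 min with biotin-H3(1-18)K9me3 peptide (50 nM) in PBS pH 7.4, 0.01% Tween-20. Compound added for 30 min at RT, then streptavidin donor/nickel chelate acceptor beads (10 ug/mL) for 30 min.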
Further: nearly all actives have a fitted effect of over 70% in size.
Potency means the concentration at half of the fitted maximal effect; tags describe the fitted curve by direction and shape.

Chain of UniProt P83916 (P83916 whole entry, looked up): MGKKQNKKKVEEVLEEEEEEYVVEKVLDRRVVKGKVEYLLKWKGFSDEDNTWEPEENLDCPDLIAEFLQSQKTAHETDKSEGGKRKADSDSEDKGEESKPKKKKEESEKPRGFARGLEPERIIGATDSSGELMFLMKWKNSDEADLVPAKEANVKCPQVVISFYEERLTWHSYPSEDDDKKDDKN

| Structure (SMILES) | Potency | activity change, negative = inhibition |
| --- | --- | --- |
| COc1ccc(N2CCN(C(=O)c3ccc(N(C)S(=O)(=O)c4ccc(C)cc4)cc3)CC2)cc1 | inconclusive: 31.6 µM [inhibitor, partial curve, poor fit] |  |
| Cc1ccc(/C=N/n2c(C3CCCCC3)n[nH]c2=S)o1 | inconclusive: 35.5 µM [inhibitor, full curve] |  |
| CCOc1ccc(-n2ccnc2SCC(=O)Nc2ccc(OC)cc2OC)cc1 | inconclusive: 14.1 µM [inhibitor, partial curve, poor fit] |  |
| CCOC(=O)C1=C(C)N(C)C(=O)NC1c1cccc2ccccc12 (stereo not drawn) |  | inactive: 8.18% |
| CC(=O)N(\C=C/C=C/C=C1\Sc2ccccc2C1=O)c1ccccc1 | active: 12.6 µM |  |
| c1ccc2c(OCCCCN3CCOCC3)cccc2c1 | inconclusive: 70.8 µM [inhibitor, single point] |  |
| FC(F)(F)c1nc2ccccc2[nH]1 |  | inactive: 35.8% |
| O=c1[nH]c(CN2CCOCC2)nc2ccccc12 |  | inactive: 18.6% |
| O=C(C1CCCO1)N1CCN(C(=S)Nc2ccc(Br)cc2)CC1 (stereo not drawn) |  | inactive: 25.2% |
| O=[N+]([O-])c1cccc(OCc2cn3cccnc3n2)c1 | inconclusive: 39.8 µM [inhibitor, single point] |  |
| Cc1ccnc(NS(=O)(=O)c2ccc(NC(=O)c3ccc4c(c3)OCCO4)cc2)n1 |  | inactive: 10.6% |
| Cc1nn(-c2cc(N3CCCCCC3)ccc2[N+](=O)[O-])c(=O)c2ccccc12 |  | inactive: -14.3% |
| Cc1nc(C)c(-c2csc(Nc3ccc(N)cc3)n2)s1 | inconclusive: 39.8 µM [inhibitor, partial curve] |  |
| Cc1c(N/N=C(\C#N)C(=O)c2ccc(Cl)cc2)c(=O)n(-c2ccccc2)n1C |  | inactive: -2.72% |
| Cc1ccc(C(=O)N2C(=O)C(c3ccccc3)Oc3ccccc32)cc1 (stereo not drawn) |  | inactive: 118% |
| CSc1ccc(CN2CCSCC2)cc1 | inconclusive: 56.2 µM [inhibitor, partial curve, poor fit] |  |
| NS(=O)(=O)c1ccc(NC(=S)NCc2ccccc2)cc1 | inconclusive: 12.6 µM [inhibitor, full curve, poor fit] |  |
| S=C(c1cn(Cc2ccc(Br)cc2)c2ccccc12)N1CCOCC1 | inconclusive: 39.8 µM [inhibitor, single point] |  |
| CCC(C(=O)O)N1C(=O)c2ccccc2C1=O (stereo not drawn) |  | inactive: 9.39% |
| O=C(COc1ccc(Cl)cc1Cl)Nc1ccc(C(=O)OC2CCCCC2)cc1 |  | inactive: 32.2% |
| CCCCC1(Cc2ccc([N+](=O)[O-])cc2)C(=O)N(c2ccccc2)N(c2ccccc2)C1=O | inconclusive: 31.6 µM [inhibitor, single point] |  |
| O=C1CCC/C(=N/Nc2ccc(Cl)cc2)C1 | inconclusive: 22.4 µM [inhibitor, full curve] |  |
| O=[N+]([O-])c1cc(C(F)(F)F)ccc1N1CCN(S(=O)(=O)c2ccc3ccccc3c2)CC1 | inconclusive: 7.94 µM [inhibitor, partial curve] |  |
| O=C1CC(=O)N2N=C(c3ccc([N+](=O)[O-])cc3)SC2=N1 |  | inactive: 8.6% |
| CC(C)COc1ccc(N)cc1OCC(C)C | inconclusive: 50.1 µM [inhibitor, partial curve] |  |

| Structure (SMILES) | Potency | activity change, negative = inhibition |
| --- | --- | --- |
| Nc1n[nH]c(=S)n1/N=C1/C(=O)Nc2ccccc21 | active: 15.8 µM |  |
| Cc1ccc(N2NC(=O)/C(=C/C=C/c3ccco3)C2=O)cc1C | inconclusive: 50.1 µM [inhibitor, partial curve] |  |
| COCCN(C/C=C/c1ccccc1)C/C=C/c1ccccc1 | inconclusive: 56.2 µM [inhibitor, single point] |  |
| CC(C)(C)c1ccc(NC(=O)CSc2n[nH]c(=O)n2C2CC2)cc1 |  | inactive: 19.6% |
| CC(C)CC1Nc2ncnc(N3CCOCC3)c2N(Cc2ccccc2)C1=O (stereo not drawn) |  | inactive: 43.7% |
| CCNC(=S)N/N=C/c1cc(C)n(-c2ccc(Cl)cc2)c1C | inconclusive: 50.1 µM [inhibitor, partial curve] |  |
| COc1ccc(C(=O)Nc2nnc(S(=O)(=O)N3CCCCCC3)s2)cc1OC | inconclusive: 10 µM [inhibitor, full curve] |  |
| COc1ccc(-c2ccc3nnc(SCC(=O)N4CCCC4)n3n2)cc1 |  | inactive: 17.9% |
| O=C(O)COc1ccccc1C(Nc1ccccn1)c1cc(Cl)c2cccnc2c1O (stereo not drawn) | inconclusive: 35.5 µM [inhibitor, partial curve, poor fit] |  |
| CC1(C)N([O-])C(c2ccccc2)=C[N+](=O)C1(C)C | inconclusive: 39.8 µM [inhibitor, single point] |  |
| CCOC(=O)c1c(N)sc2c(O)c(Br)ccc12 | inconclusive: 56.2 µM [inhibitor, partial curve] |  |
| O=C1C=CC(=O)N1CCCCCCN1C(=O)C=CC1=O | inconclusive: 5.01 µM [inhibitor, full curve, poor fit] |  |
| Cc1ccc(CNc2ccc(N3CCOCC3)c(Cl)c2)cc1 | inconclusive: 79.4 µM [inhibitor, single point] |  |
| CC1=NN(c2nc(-c3ccc(C)cc3)cs2)C(=O)C1N=Nc1cccc(O)c1 (stereo not drawn) | inconclusive: 20 µM [inhibitor, full curve] |  |
| Cc1ccc(-c2csc(NCCn3c(-c4ccncc4)nc4cc(C(F)(F)F)ccc43)n2)cc1 |  | inactive: 19.7% |
| C=CCc1cc(OC)ccc1OCCN(C)Cc1ccccc1 | inconclusive: 22.4 µM [inhibitor, full curve] |  |
| CC(c1ccncn1)N(C)Cc1nc(-c2ccc(C(F)(F)F)cc2)no1 (stereo not drawn) |  | inactive: 39.6% |
| COC(=O)c1ccc[n+](CC(=O)Nc2ccc(OC(F)F)cc2)c1 | inconclusive: 89.1 µM [inhibitor, single point] |  |
| COc1cc(CNCCc2c[nH]c3ccccc23)ccc1OCc1ccc(F)cc1 | inconclusive: 31.6 µM [inhibitor, full curve] |  |
| Cc1ccc(C(C)(C)C)cc1S(=O)(=O)N1CCC(C(=O)N2CCN(c3ccc(O)cc3)CC2)CC1 | inconclusive: 17.8 µM [inhibitor, full curve, poor fit] |  |
| Cc1ccc(-c2ccc(/C=N/N=C3/NC(=O)C(CC(=O)O)S3)o2)c([N+](=O)[O-])c1 (stereo not drawn) |  | inactive: 0.584% |
| CC(C)OC(=O)c1c(N)sc2c1CCCC2 |  | inactive: -36.4% |
| Cc1ccccc1-c1cc(C(=O)Nc2sc(C)c(C)c2C(N)=O)c2ccccc2n1 | inconclusive: 35.5 µM [inhibitor, partial curve] |  |
| O=C(C(c1ccccc1)c1ccccc1)N1CCN(Cc2ccncc2)CC1 | inconclusive: 15.8 µM [inhibitor, full curve, poor fit] |  |
| Cc1ccn(-c2cc(O)c(-n3ccc(C)n3)cc2O)n1 | inconclusive: 2.51 µM [inhibitor, full curve, poor fit] |  |

| Structure (SMILES) | Potency | activity change, negative = inhibition |
| --- | --- | --- |
| O=C(NCCc1ccccc1)C1CCCN(c2cnccn2)C1 (stereo not drawn) | inconclusive: 14.1 µM [inhibitor, partial curve, poor fit] |  |
| CS(=O)(=O)N(CC(=O)NCc1ccc(Cl)cc1)C1CCCCC1 | inconclusive: 3.55 µM [inhibitor, single point] |  |
| O=C(CSc1cccc[n+]1[O-])c1cc(Cl)ccc1Cl |  | inactive: 33.5% |
| Cc1cc(NC(=O)CN2CCCCC2)no1 | inconclusive: 39.8 µM [inhibitor, partial curve, poor fit] |  |
| COc1ccc(C2C(C(N)=O)=C(C)Nc3nc(CCCO)nn32)c(OC)c1 (stereo not drawn) |  | inactive: 26.3% |
| c1ccc(-c2ccccc2OCCCN2CCCCCC2)cc1 | inconclusive: 15.8 µM [inhibitor, full curve] |  |
| COc1ccc(NC(=O)c2noc3c2CCC3)cc1 | inconclusive: 56.2 µM [inhibitor, partial curve, poor fit] |  |
| COc1ccc(CC(=O)OCC(=O)Nc2ccc(N3CCOCC3)cc2)cc1 |  | inactive: 15.8% |
| COCCn1c(SCC(=O)Nc2ccccc2C(F)(F)F)nc2ccccc2c1=O |  | inactive: 38% |
| Cc1nc(-c2ccc(O)c(O)c2)cs1 | inconclusive: 50.1 µM [inhibitor, partial curve, poor fit] |  |
| CCN(CC)c1ccc(NC(=O)CCCOc2cccc(C)c2)cc1 | inconclusive: 20 µM [inhibitor, full curve] |  |
| CC(C)NC(=O)C1CCN(C(=O)N2CCOc3ccc(Cl)cc32)CC1 |  | inactive: 21.2% |
| O=C(COC(=O)C1CC(=O)N(Cc2ccco2)C1)c1ccc(OC(=O)c2ccccc2)cc1 (stereo not drawn) | inconclusive: 50.1 µM [inhibitor, single point] |  |
| COc1ccc(S(=O)(=O)NCc2ccco2)cc1NC(=O)c1ccccc1 | inconclusive: 89.1 µM [inhibitor, single point] |  |
| COC(=O)c1ccccc1OCCN1CCCCCC1 | inconclusive: 56.2 µM [inhibitor, partial curve, poor fit] |  |
| Clc1ccc(SCCn2cncn2)cc1 | inconclusive: 70.8 µM [inhibitor, single point] |  |
| O=C1Nc2ccccc2S/C1=C/Nc1cccc(Cl)c1 | inconclusive: 25.1 µM [inhibitor, partial curve] |  |
| COc1ccc(C(C(=O)NCc2ccccc2)N(Cc2ccco2)C(=O)c2snc(C(N)=O)c2N)cc1OC (stereo not drawn) | inconclusive: 89.1 µM [inhibitor, single point] |  |
| CCCCCCN1C=C/C(=C\C=C(C#N)C#N)c2ccccc21 | inconclusive: 35.5 µM [inhibitor, single point] |  |
| CC(=O)N1CCOc2ccc(S(=O)(=O)NC[C@H]3O[C@@H](n4ccc(=O)[nH]c4=O)[C@H](O)[C@@H]3O)cc21 |  | inactive: 11.5% |
| Oc1ccc(/C=N/N2CCCCC2)c(O)c1O |  | inactive: -22.1% [at 57 µM] |
| CC(C)[C@H]1COCCS(=O)(=O)N1Cc1ccccc1-c1cccc(Cl)c1 |  | inactive: 38.6% |
| O=C(O)CCNc1ccc(NCCC(=O)O)c2c1C(=O)c1ccccc1C2=O | active: 14.1 µM |  |
